Laboratory results: PubChem BioAssay AID485344 (National Center for Advancing Translational Sciences (NCATS), 2010)
Among all 340,000 compounds or so, about 6,900 (2%) were called active. Cut-off read from the data, not from the text of the source: active = inhibition above about 30%; inactive = below that, where a call was filed. The list shows a part of the results, in another mix than the full data. Entries without a call were filed so in the source.

Molecular target: D(2) dopamine receptor (Homo sapiens) (UniProt P14416)
Sequence of UniProt P14416 (P14416 whole entry, looked up): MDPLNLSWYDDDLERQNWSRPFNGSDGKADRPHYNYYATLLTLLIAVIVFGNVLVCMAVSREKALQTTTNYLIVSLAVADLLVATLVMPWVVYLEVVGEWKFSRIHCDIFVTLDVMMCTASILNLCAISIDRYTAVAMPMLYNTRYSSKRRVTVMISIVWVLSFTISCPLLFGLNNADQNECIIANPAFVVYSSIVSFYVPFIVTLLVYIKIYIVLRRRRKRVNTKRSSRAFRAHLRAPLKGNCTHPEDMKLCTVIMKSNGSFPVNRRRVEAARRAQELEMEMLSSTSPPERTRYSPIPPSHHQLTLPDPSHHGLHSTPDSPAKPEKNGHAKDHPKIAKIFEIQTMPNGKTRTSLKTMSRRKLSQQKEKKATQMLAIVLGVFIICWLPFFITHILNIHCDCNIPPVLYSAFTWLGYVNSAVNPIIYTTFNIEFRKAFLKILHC
Test: HTS Assay for Allosteric Antagonists of the Human D2 Dopamine Receptor: Primary Screen for Antagonists; note: 0% is about no effect
Details: HEK293 TREx D2 cells, calcium flux, dopamine EC80; at 10 µM; stronger effect = higher value
Method in brief: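 Read-out: kinetic calcium fluorescence (1 cycle/s) in inducible HEK293 T-REx D2 cells after an EC80 dopamine addition that followed 180 s compound preincubation. Loss of the dopamine response indicates antagonism.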

Structure (SMILES)	inhibition
Cc1cccc(Cc2c(C)nc3nc(SCC(=O)NCc4ccccc4)nn3c2C)c1	-1.86%
CC(C)Oc1ccc(CNC(=O)c2cccc(NC(=O)N3CCSc4ncccc43)c2)cc1	-1.7%
CCC(=O)N1CCc2cc(Br)cc(S(=O)(=O)N3CCCC(C(=O)Nc4cccc(F)c4)C3)c21 (stereo unspecified)	8.5%
CCOC(=O)CSc1nc2sc3c(c2c(=O)n1-c1ccccc1)CCC(C(C)(C)C)C3 (stereo unspecified)	-8.74%
COc1ccc(NC(=O)c2cc(CN3CCCC3)on2)cc1Cl	0.435%
Cc1ccccc1C(=O)Oc1c(Sc2ccccc2)c(C)nn1C(C)(C)C	-3.52%
Cc1ccc(C(=O)Nc2nnc(S(=O)(=O)N3CCc4ccccc43)s2)cc1	0.877%
Cc1cccc(C)c1N1CCN(CCn2c(=S)[nH]c3ccccc3c2=O)CC1	active: 71.4%
O=C(Nc1cccnc1)c1cc(-c2cccc(Cl)c2)on1	26.1%
O=C(NCc1ccc(F)cc1)c1cc(-c2ccc(Cl)cc2)n[nH]1	-5.9%
CCc1ccc(S(=O)(=O)c2nnn3c2nc(Nc2ccc(F)cc2)c2cc(Cl)ccc23)cc1	1.73%
CCC(C)NC(=O)CCSc1nc(-c2ccc(OC)cc2)cc(C(F)(F)F)n1 (stereo unspecified)	2.12%
O=C(O)c1cccc(Nc2ncnc3scc(-c4ccccc4)c23)c1	19.2%
COc1cccc(-n2c(-c3cccc(F)c3)nc3c(cnn3-c3ccc(C)cc3)c2=O)c1	5.82%
CCc1cnc2c(c1SCC(=O)c1ccc(OC)cc1)c(=O)n(C)c(=O)n2C	-1.51%
Cc1cc(C(=O)CSc2nnc(N)s2)c(C)n1CCc1ccc(F)cc1	active: 42.6%
COc1ccccc1CNC(=O)CC(c1ccc(OC)c(OC)c1)N1Cc2ccccc2C1=O (stereo unspecified)	2.99%
COc1ccc(OC)c(/C=C/C(=O)Nc2ccc(C(=O)OCCC(C)C)cc2)c1	14%
O=S(=O)(NCc1ccc(Cl)cc1)c1ccc(-c2cnc(C3CC3)o2)cc1	13.8%
Cc1ccccc1CN1C(=O)c2ccccc2Sc2ccc(C(=O)NC3CCCC3)cc21	2.03%
CCN(Cc1ccccc1)c1ncnc2c1nnn2C	10.6%

Structure (SMILES)	inhibition
CCN(CC)CCNC(=O)Nc1ccc2c(c1)N(Cc1ccccc1)C(=O)c1ccccc1S2	-2.56%
COc1ccc(N2CC(NC(=O)c3ccc(S(=O)(=O)N4CCOCC4)cc3)CC2=O)cc1OC (stereo unspecified)	-14.8%
CCc1ccc(S(=O)(=O)N(C(=O)Oc2ccccc2)c2ccc3oc(C)c(C(=O)OC)c3c2)cc1	-7.53%
CCCCNC(=O)C1CCC(CNS(=O)(=O)c2ccc(Cl)cc2)CC1 (stereo unspecified)	14%
CCCCOc1cccc(C(=O)N(Cc2cccs2)c2ccc(OC)cc2)c1	4.67%
NC(=O)c1ccc(C(F)(F)F)n(Cc2cccc(Cl)c2)c1=O	active: 31.9%
CC(=O)NCCn1c(SCC(=O)Nc2ccc(C)cc2)nc2ccccc2c1=O	2.07%
CC(C)(C)c1ccc(-c2nc(SCC(=O)Nc3ccc(Cl)cc3)[nH]c(=O)c2C#N)cc1	25.5%
Cc1cccc(NC(=O)c2sc3nc(N4CCOCC4)c4c(c3c2N)CC(C)(C)OC4)c1	-13%
O=C(CSc1nc2c([nH]c3ccccc32)c(=O)n1-c1ccccc1)Nc1ccc2c(c1)OCCO2	4.32%
Cc1ccc(C(=O)NNc2ncnc3c2cnn3C)cc1	active: 30.9%
Cc1ccc(C)c2sc(N3CCN(C(=O)C(C)(C)C)CC3)nc12	-11.1%
CCN(CCCNC(=O)c1cc2c(Cl)nc3ccccc3c2s1)Cc1ccccc1	-9.88%
CCC(=O)c1cc2c(cc1NC(=O)c1ccccc1F)OCCO2	-1.4%
CCN(CC)c1sc(S(=O)(=O)c2ccccc2)nc1S(=O)(=O)c1ccc(C)cc1	-12.7%
CC(=O)N1c2ccc(S(=O)(=O)NCCC(=O)Nc3ccc(Br)c(C)c3)cc2CC1C (stereo unspecified)	19.2%
CC1=C(C(=O)Nc2ccc(C)cc2Cl)C2(CCCCCC2)OC1=O	-3.37%
CCOc1ccc(CCNC(=O)c2ccc(-n3c(C)cc4c3CCC(C)C4)cc2)cc1OCC (stereo unspecified)	-0.936%
CCCN(C(=O)CCc1nc(-c2ccc(OC)cc2)no1)c1ccccc1F	-1.61%
CSc1ncc(C(=O)N2CCN(c3cc(Cl)ccc3C)CC2)c(C)n1	4.53%
COc1cccc2cc(-c3nnc(Nc4c(F)cccc4F)s3)c(=O)oc12	-11%

Structure (SMILES)	inhibition
COc1cc(-c2nc(Cn3nnc(C(=O)Nc4ccc(C)cc4C)c3C)c(C)o2)cc(OC)c1OC	-5.34%
COc1ccc(N2CCN(c3oc(-c4ccc(COc5cccc(C)c5)o4)nc3C#N)CC2)cc1	2.06%
Cc1ccc(NC(=O)CN(C)S(=O)(=O)c2ccc3[nH]c4c(c3c2)CCCC4)c(Cl)c1	-1.88%
COc1ccccc1CO/N=C/NC(=O)c1c(OC)ccnc1Oc1ccc(F)cc1	active: 37%
CC(C)Cn1c(=O)c2ccccc2n2c(CCC(=O)NC(C)c3ccccc3)nnc12 (stereo unspecified)	-7.1%
Cc1cccc(C(=O)NCCN2CCN(c3ccccc3)CC2)c1	active: 90.8%
Cc1cc(C)c2nc(N(Cc3cccnc3)C(=O)c3cccs3)sc2c1	4.96%
CCNS(=O)(=O)c1ccc(NC(=O)Nc2cccc(C(F)(F)F)c2)cc1	active: 38.4%
Cc1ccc(Cn2c(CN3CCC(C(=O)NCCc4ccccc4)CC3)cc3ccccc32)cc1	-3.62%
CC(C)Sc1ncc(Cl)c(C(=O)N(Cc2ccc(N(C)C)cc2)C2CCS(=O)(=O)C2)n1 (stereo unspecified)	28.2%
CCc1nn(CC(=O)Nc2ccc(N(CC)CC)cc2C)c(=O)c2cc3sccc3n12	-0.0834%
CCN1CCN(c2oc(-c3ccccc3)nc2S(=O)(=O)c2ccc(C)cc2)CC1	active: 47.2%
N#Cc1ccc(C(=O)Nc2ccc3c(c2)N(C2CCCC2)C(=O)c2ccccc2S3)cc1	7.34%
Cc1nn(-c2ccc(N3CCCC3)nn2)c(C)c1CCC(=O)Nc1ccc(F)c(Cl)c1	7.64%
O=C(NCCc1nc2ccccc2n1Cc1ccc(Cl)cc1Cl)c1ccco1	3.5%
CCn1ccc2c(OCC(=O)NCc3ccc(F)cc3)cccc2c1=O	16.1%
Cc1ccc(-n2c(=O)c3c(cnn3C)n(Cc3ccccc3F)c2=O)cc1	1.69%
Cn1c2ccccc2c2cnn(CC(=O)Nc3ccccc3C(F)(F)F)c(=O)c21	-0.721%
Cc1ccccc1-c1noc(-c2ccc(N3CCOCC3)c([N+](=O)[O-])c2)n1	-20.9%
